# Where “and” joins values, the source holds several entries; their conditions need not be identical. Equal entries are not always repeated. Screen size: about 360,000 compounds; about 11,000 (3.1%) were called active. Inconclusive results, whose numbers are uncertain, are shown with a selection of clear calls. The call rests on the fitted dose curve; in most records, active means well fitted inhibition curve with a large enough effect; inconclusive means small, poorly fitted or top-dose-only effect; inactive means no such curve, though single readings can be large or run the other way. No potency is given beside an inconclusive call; the fits are too rough.
# Target: Schistosoma mansoni thioredoxin glutathione reductase (TGR) (UniProt Q962Y6)
# Assay: qHTS Assay for the Inhibitors of Schistosoma Mansoni Peroxiredoxins; further: nearly all actives have a fitted effect of over 60% in size
# Conditions: purified TGR, DTNB reduction, TNB absorbance 405 nm; series mostly up to 114 µM
# Procedure, shortened: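 TGR 20 nM + NADPH 100 uM (dispensed conc.), cpd preinc 15 min RT; start with NADPH (500 uM addition) then DTNB (15 mM addition). Kinetic TNB absorbance, 405 nm filter. Four-parameter Hill fit across titration.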
# Potency means the concentration at half of the fitted maximal effect; tags describe the fitted curve by direction and shape.
row,Structure (SMILES),Potency
1,CCCCC1=CC2=CC(=O)C(C)(OC(=O)C3CCCC3)C(=O)C2=CO1 (stereo not given),active: 39.8 µM
2,Cc1ccc2nc(-c3ccccc3)cc(C(=O)N3CCc4ccccc4C3)c2c1,inactive
3,CCC(=O)Nc1cccc(NC(=S)NC(=O)c2ccccc2)c1,active: 44.7 µM
4,COc1ccc2[nH]c(=O)c(CN(CCN3CCCC3)C(=O)Nc3ccccc3Cl)cc2c1,inactive
5,CN(Cc1ccco1)c1ncnc2ccc(-c3ccoc3)cc12,active: 39.8 µM and active: 20 µM
6,CCOC(=O)c1sc(-n2[nH]c(C)cc2=O)nc1C,"inconclusive [inhibitor, full curve, poor fit]"
7,CC(=O)N1CCc2c(sc3c2c(=O)n(Cc2ccccc2)c(=O)n3Cc2ccccc2Cl)C1,inactive
8,O=C1C(=O)N(CCN2CCOCC2)C(c2ccncc2)/C1=C(/O)c1ccc2c(c1)OCO2 (stereo not given),"inconclusive [inhibitor, partial curve]"
9,O=C(CC(n1cncn1)C(Cl)(Cl)Cl)c1ccc([N+](=O)[O-])cc1 (stereo not given),active: 0.282 µM
10,CCCCCC(=O)NC(=S)NC1C2CC3CC(C2)CC1C3 (stereo not given),"inconclusive [inhibitor, full curve]"
11,CCOc1ccc(NC(=S)NN2CCN(C)CC2)cc1,"inconclusive [inhibitor, partial curve]"
12,Cc1ccc2[nH]c(=O)c(CN(CCCN3CCOCC3)Cc3nnnn3C3CCCC3)cc2c1,"inconclusive [inhibitor, full curve]"
13,CN(CCN1CCOCC1)C(=O)CC1C(=O)NCCN1Cc1ccccc1F (stereo not given),"inconclusive [inhibitor, single point]"
14,Cc1nn(Cc2ccccc2Cl)c2sc(C(=O)Nc3nccs3)cc12,inactive
15,COCCN(CC1CCCN(C2Cc3ccccc3C2)C1)C(=O)c1cccc(C)c1 (stereo not given),"inconclusive [inhibitor, partial curve]"
16,C#CCCC(=O)c1ccccc1/C=[N+](\[O-])c1ccccc1,"inconclusive [inhibitor, single point]"
17,COc1ccc(NS(=O)(=O)c2cc(C(=O)N3CCC3)ccc2C)cc1,"inconclusive [inhibitor, partial curve]"
18,CC(=O)Nc1ccc2nc(CN3CCN(CC(C)C)C(CCO)C3)ccc2c1 (stereo not given),"inconclusive [inhibitor, partial curve]"
19,COC(=O)c1ccc(NC(=S)Nc2ccccc2)cc1,active: 31.6 µM
20,COc1ccc(CCC(=O)Nc2nnc(C(F)(F)F)s2)cc1,"inconclusive [inhibitor, full curve, poor fit]"
